Test results as given in PubChem BioAssay AID2451 (National Center for Advancing Translational Sciences (NCATS), 2010).
About 2,100 (0.72%) of roughly 290,000 compounds were called active. The shares of active, inactive and inconclusive entries below differ from those in the screen. Calls come from the whole dose curve; as a rule, active = well fitted inhibition curve with a large enough effect; inconclusive = small, poorly fitted or top-dose-only effect, or effect the other way; inactive = flat fitted curve, though single readings scatter. Potencies beside an inconclusive call are fits to weak or partial responses and may not hold up.

The compounds below were run against Fructose-bisphosphate aldolase (Giardia intestinalis (strain ATCC 50803 / WB clone C6)) (UniProt A8B2U2) (assay: qHTS Assay for Inhibitors of Fructose-1,6-bisphosphate Aldolase from Giardia Lamblia). Settings: purified Giardia FBPA; activity, negative = inhibition: at 59.6 µM (top of the series) unless noted.
In short: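 Giardia FBPA (40 nM reagent) was preincubated 10 min at RT with compound (up to 57.5 uM final), then substrate plus GAPDH/TPI/NAD/arsenate coupling system with diaphorase/resazurin was added; resorufin fluorescence (525/598 nm) was read after 20 min.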
% is set by controls: 0 for no effect and ±100 for the full control effect; potency is the fitted concentration of half-maximal effect; tags give direction and shape of the fitted curve.
Note: nearly all actives have a fitted effect of over 55% in size.

Sequence of UniProt A8B2U2 (A8B2U2 whole entry, looked up): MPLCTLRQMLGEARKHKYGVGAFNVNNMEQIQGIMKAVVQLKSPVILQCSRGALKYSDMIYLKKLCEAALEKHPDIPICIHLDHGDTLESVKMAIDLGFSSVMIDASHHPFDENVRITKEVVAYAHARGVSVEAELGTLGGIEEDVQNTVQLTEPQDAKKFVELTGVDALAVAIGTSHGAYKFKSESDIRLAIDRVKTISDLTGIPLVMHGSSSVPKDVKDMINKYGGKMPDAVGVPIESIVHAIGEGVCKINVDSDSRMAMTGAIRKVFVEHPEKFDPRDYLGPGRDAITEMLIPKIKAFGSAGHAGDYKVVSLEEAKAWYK

Row | SMILES | Potency | activity, negative = inhibition
1 | COc1ccc(-c2ncc3ccccn23)cc1OC | inconclusive: 22.3 µM [inhibitor, partial curve] | 
2 | COc1ccc2[nH]c3nc(SCC(=O)NC4CC4)nnc3c2c1 | inconclusive: 31.6 µM [inhibitor, single point] | 
3 | Cc1cccc(N2CCN(C(=O)Cc3cn(C)c4ccccc34)CC2)c1C | inconclusive: 31.5 µM [inhibitor, single point] | 
4 | CS(=O)(=O)Nc1ccc(C2=NN(C(=O)CCCC(=O)O)C(c3cccs3)C2)cc1 (configuration not stated) |  | inactive: 5.5%
5 | Cc1nc2nc(C)c(NS(=O)(=O)c3cccs3)c(=O)n2[nH]1 | inconclusive: 35.5 µM [inhibitor, partial curve] | 
6 | C=CCn1c(O)c(N=NC(=O)CNC(=O)/C=C/c2ccc(OC)cc2)c2ccccc21 |  | inactive: 3.34%
7 | CCC(=O)Nc1ccc(Cl)c(NC(=S)NC(=O)c2ccco2)c1 | inconclusive: 15.8 µM [inhibitor, single point] | 
8 | O=C1CCCC2=C1C(c1ccco1)Nc1ccc(C(=O)c3ccccc3)cc1N2 (configuration not stated) | inconclusive: 4.46 µM [inhibitor, single point] | 
9 | CC(C)(C)c1ccc(S(=O)(=O)CCc2ccccn2)cc1 |  | inactive: 13.9%
10 | COc1cc(OC)c(Cl)cc1N | inconclusive: 4.46 µM [inhibitor, full curve] | 
11 | COc1cc(C(Nc2ccc3c(c2)OCO3)C(=O)NC2CCCCC2)cc(OC)c1OC (configuration not stated) | inconclusive: 17.7 µM [inhibitor, partial curve] | 
12 | CCOC(=O)C1CCN(C(=O)C2CCN(c3nnc(-n4cccc4)s3)CC2)CC1 |  | inactive: 7.97%
13 | COC(=O)NC1CCC(NC(=O)OC)CC1 (configuration not stated) |  | inactive: 1.66%
14 | O=C(O)Cn1c2ccccc2c2n[nH]c(=S)nc21 | active: 8.91 µM | 
15 | CC1CCCN(CCOc2ccc3ccccc3c2Br)C1 (configuration not stated) | inconclusive: 11.2 µM [inhibitor, partial curve] | 
16 | C[n+]1c2cc(N)ccc2cc2ccc(N)cc21 | inconclusive: 2.23 µM [inhibitor, full curve] | 
17 | O=[N+]([O-])c1cccc2c(Cl)ccnc12 | inconclusive: 25.1 µM [inhibitor, single point] | 
18 | O=C(c1ccccc1)N1CCN(Cc2cccc(Oc3ccccc3)c2)CC1 | inconclusive: 17.7 µM [inhibitor, single point] | 
19 | O=C(CSc1nnc(CNC(=O)c2ccco2)o1)c1ccccc1 |  | inactive: 0.449%
20 | O=C(CN1CCOCC1)NCCc1ccccc1 |  | inconclusive: 45% [activator]
21 | CN1CCN(c2ccc(N)cc2Cl)CC1 | inconclusive: 11.2 µM [inhibitor, partial curve] | 
22 | CC(CN1CCCCC1)OC(=O)/C=C/c1ccccc1 (configuration not stated) | inconclusive: 35.5 µM [inhibitor, single point] | 
23 | Cc1ccc(NC(=O)c2cccc3cccnc23)cc1 |  | inactive: 4.47%
24 | Cc1oc2c(O)c(O)ccc2c(=O)c1-c1ccccc1 | active: 11.2 µM | 

Row | SMILES | Potency | activity, negative = inhibition
25 | O=S(=O)(Nc1nc2cc3c(cc2nc1Cl)OCCO3)c1ccccc1 | inconclusive: 19.9 µM [inhibitor, partial curve] | 
26 | CCNC(=S)N(Cc1ccco1)Cc1cc2cc3c(cc2[nH]c1=O)OCCO3 |  | inactive: 3.91%
27 | Cc1ccc(-n2c(C)nc3cc(Cl)ccc3c2=O)nc1 |  | inactive: 0.434%
28 | CCOC(=O)c1ccc(-n2c(CCC(=O)O)ccc2-c2cccs2)cc1 | inconclusive: 17.7 µM [activator, single point] | 
29 | C[C@H](NC(=O)c1nc[nH]c1C(=O)NCC(=O)OCc1ccccc1)C(=O)OC(C)(C)C | inconclusive: 7.94 µM [inhibitor, full curve] | 
30 | COC(=O)c1ccccc1NS(=O)(=O)c1ccc(F)cc1 | inconclusive: 17.7 µM [inhibitor, single point] | 
31 | COC(=O)[C@@H](NC(=O)N1CCc2nc(-c3ccccc3)c3c(c2C1)CO[C@@H](C)C3)C(C)C |  | inactive: 2.52% [at 12.9 µM]
32 | CC(C)(C)c1ccc(OCC(O)CSc2ncn[nH]2)cc1 (configuration not stated) | inconclusive: 12.6 µM [inhibitor, partial curve] | 
33 | O=C1NNC(=O)C1c1ccccc1 | inconclusive: 28.2 µM [inhibitor, single point] | 
34 | S=C(Nc1ccc(Cl)cc1)c1nc2ccccc2[nH]1 | inconclusive: 5.61 µM [activator, single point] | 
35 | CCOc1cc(N2CCOCC2)c(OCC)cc1NC(=O)CN1CCCC1 | inconclusive: 17.7 µM [inhibitor, partial curve] | 
36 | COc1ccc(OCC#CCN2CC(C)OC(C)C2)cc1 (configuration not stated) | inconclusive: 19.9 µM [inhibitor, partial curve] | 
37 | COC(=O)C1=C[C@@H](C(=O)OC)C2C3=C(C(=O)[C@@]2(C)NC(=O)c2ccccc2)[C@H](c2ccccc2)[C@@H]2C(=O)N(c4ccccc4)C(=O)[C@@H]2[C@@H]3C1 (some centres not stated) |  | inactive: -3.68%
38 | CC(C)OC(=O)CSc1nnc(-c2ccc(C(C)(C)C)cc2)n1N | inconclusive: 22.3 µM [inhibitor, single point] | 
39 | NC(=S)NNc1cc(Cl)cc(Cl)c1 | inconclusive: 7.92 µM [inhibitor, partial curve] | 
40 | O=C(Nc1ccc2c(c1)OCO2)C1CCN(C(=O)c2ccc(Cl)cc2)CC1 |  | inactive: 4.46%
41 | CC1CCN(CC(=O)Nc2nccs2)CC1 | inconclusive: 2.82 µM [inhibitor, full curve] | 
42 | CC(=O)/C=C(\C)Nc1ccccc1O | inconclusive: 17.7 µM [inhibitor, partial curve] | 
43 | CC(C)(C)c1ccc(OCC(=O)Nc2ccc(C(=O)Nc3ccccc3C(=O)O)cc2)cc1 |  | inactive: 2%
44 | CCC(=O)NCc1ccc2[nH]c(C)cc2c1 | inconclusive: 14.1 µM [inhibitor, partial curve] | 
45 | Cc1ccc(S(=O)(=O)Nc2nc3ccc(S(=O)(=O)N4CCCC4)cc3s2)cc1 | inconclusive: 17.7 µM [activator, single point] | 
46 | O=C(CSc1cccc[n+]1[O-])c1cc2ccccc2o1 | inconclusive: 25.1 µM [inhibitor, single point] | 
47 | CCOC(=O)c1ccc2nc(NC(C)=O)sc2c1 |  | inactive: 0.646%
